For one assay, the target named is T1, hPD-L1 binding to hPD-1 (Homo sapiens, UniProt Q9NZQ7).
T1 construct: purchased R&D Systems 156-B7-100 (hPD-L1); 1086-PD-050 (hPD-1)
Description: AlphaLISA blocking assay. The note with it: His6-tagged Z variants; 10 nM (Z13166, Z13398) or 8 nM (Z13178, Z13359) biotinylated hPD-L1; hPD-1 coated Acceptor beads; read-out: IC50 (M) inhibiting binding of PD-L1 to PD-1. As for the experimental part:
The potential of Z variants to inhibit binding of PD-L1 to PD-1 was analyzed by AlphaLISA and recordings in an EnSpire multiplate reader 2300 (Perkin Elmer). hPD-1 (human PD-1 Fc-chimera; R&D Systems, cat. no. 1086-PD-050) was immobilized on AlphaLISA Acceptor beads (Perkin Elmer, cat. no. 6772002) according to the manufacturers recommendations. Stepwise serial dilutions 1:3 of the His-tagged Z variants Z13166 (SEQ ID NO:1) and Z13398 (SEQ ID NO:4) to final concentrations of 250 nM to 12 μM were made in a 384 plate (Perkin Elmer, cat. no. G6005350) and incubated for 1 h with 10 nM biotinylated hPD-L1 in AlphaLISA buffer (Perkin Elmer, cat. no. AL000F). hPD-1-coated Acceptor beads were added to a final concentration of 10 μg/ml and incubated for 1 h. Finally, streptavidin coated Donor beads (Perkin Elmer, cat. no. 6772002) were added to a final concentration of 40 μg/ml and incubated for 30 min. All incubations were performed at RT in the dark. The plate was analyzed in the EnSpire instrument and the IC50 values were calculated using GraphPad Prism 5. AlphaLISA analysis of the Z variants Z13178 (SEQ ID NO:2) and Z13359 (SEQ ID NO:3) was performed essentially as described above but with the following exceptions: Exception 1: stepwise serial dilutions 1:3 of Z variants to final concentrations of 250 nM to 4 μM were made in a 384SW plate (Perkin Elmer, cat. no. 6008350) and incubated for 45 min with 8 nM biotinylated hPD-L1 (R&D Systems) in AlphaLISA buffer (Perkin Elmer, cat. no. AL000F); and Exception 2: hPD-1-coated Acceptor beads were added to a final concentration of 10 μg/ml and incubated for 50 min.

The next assay deals with T2, mPD-L1 (Mus musculus, UniProt Q9EP73).
T2 construct: purchased R&D Systems 1019-B7
Description: Biacore specificity analysis on immobilized mPD-L1. The format is binding. Particulars: His6-tagged Z variants. The procedure:
Kinetic constants (ka and kd) and affinities (KD) for hPD-L1 were determined for the His6-tagged Z variants Z13166 (SEQ ID NO:1), Z13178 (SEQ ID NO:2), Z13359 (SEQ ID NO:3) and Z13398 (SEQ ID NO:4) using a Biacore 2000 instrument (GE Healthcare). All four Z variants were also tested for binding against the sequence-related proteins hPD-L2, hB7-H3, hB7-H4. Z13166 and Z13398 were further analyzed against mPD-L1 (mouse PD-L1 Fc Chimera, R&D Systems, cat. no. 1019-B7) and Z13178 and Z13359 were analyzed against rhesus monkey PD-L1 (RhPD-L1; rhesus PD-L1/Fc Chimera, Sino Biological Inc., cat. no. 90251-C02H)
hPD-L1, hPD-L2, hB7-H3, hB7-H4, mPD-L1 and RhPD-L1 were immobilized in separate flow cells on the carboxylated dextran layer of different CM5 chip surfaces (GE Healthcare, cat. no. BR100012). […] In a first set of experiments, in which Z13166 and Z13398 were analyzed, the ligand immobilization levels on the surfaces were 468-894 RU for hPD-L1, 482 RU for mPD-L1, 537-742 RU for hPD-L2, 383 RU for hB7-H3, and 538-659 RU for hB7-H4. […] Kinetic constants were calculated from the sensorgrams using the Langmuir 1:1 model of BiaEvaluation software 4.1 (GE Healthcare). In a second set of experiments, in which Z13178 and Z13359 were analyzed, the ligand immobilization levels on the surfaces were 1030 RU for hPD-L1, 1060 RU for RhPD-L1, 1070 RU for hPD-L2, 1090 RU for hB7-H3, and 770 RU for hB7-H4. […]
(In general: Surface plasmon resonance follows binding to a sensor surface in real time, without labels.)

T1 sequence (Q9NZQ7 19-239 limits assumed): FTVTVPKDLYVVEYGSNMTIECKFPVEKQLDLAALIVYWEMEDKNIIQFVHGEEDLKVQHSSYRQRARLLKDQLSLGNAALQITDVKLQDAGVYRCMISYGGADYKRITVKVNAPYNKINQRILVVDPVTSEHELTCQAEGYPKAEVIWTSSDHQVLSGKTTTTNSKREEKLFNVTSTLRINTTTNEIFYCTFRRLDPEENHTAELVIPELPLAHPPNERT
T2 sequence (Q9EP73 19-290): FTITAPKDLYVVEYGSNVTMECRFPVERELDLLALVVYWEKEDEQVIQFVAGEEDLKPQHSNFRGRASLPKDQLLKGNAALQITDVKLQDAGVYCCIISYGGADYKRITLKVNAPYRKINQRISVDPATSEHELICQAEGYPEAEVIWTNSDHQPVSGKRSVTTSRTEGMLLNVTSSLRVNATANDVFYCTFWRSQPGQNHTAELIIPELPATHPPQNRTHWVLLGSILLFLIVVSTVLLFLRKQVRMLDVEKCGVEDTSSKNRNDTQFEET

“Z13359: PD-L1 binding Z variant, 58 amino acid residues, SEQ ID NO:3; tested as ABD fusion or His6-tagged (VDAKYAKERTIAVWEIMDLPNLTSWQRGAFIDKLHDDPSQSSELLSEAKKLNDSQAPK; Engineered PD-L1 binding polypeptide)”: the IC50 with hPD-L1 binding to hPD-1 was 1.8e-09 M.
On to “Z13166: PD-L1 binding Z variant, 58 amino acid residues, SEQ ID NO:1; tested as ABD fusion or His6-tagged (VDAKYAKERTVAVWEIVQLPNLTAWQKGAFINKLHDDPSQSSELLSEAKKLNDSQAPK; Engineered PD-L1 binding polypeptide)”, for which the IC50 with hPD-L1 binding to hPD-1 came out at 6.2e-09 M. The “binding to mouse PD-L1 in Biacore” value in the assay with mPD-L1 is “no binding was detected”.
For “Z13398: PD-L1 binding Z variant, 58 amino acid residues, SEQ ID NO:4; tested as ABD fusion or His6-tagged (VDAKYAKERTMATWEIVQLPNLTARQKGAFIWKLHDDPSQSSELLSEAKKLNDSQAPK; Engineered PD-L1 binding polypeptide)”, in that order: 4.9e-09 M and “no binding was detected”.

The IC50 is the concentration that inhibits the measured activity by half.

The record behind these values is patent publication US10364280B2, “Polypeptide” (AFFIBODY AB, priority 2015, dated 2019).
